The text below walks through data of PubChem BioAssay AID488969 (Vanderbilt High Throughput Screening Facility, 2010).

Structures are written as SMILES. Where “and” joins values, the source holds several entries; their conditions need not be identical. Equal values may be shown once. Whole data set: some 110,000 compounds, median “z-score” near -0.1, cut for the highest 2% near 2. The list shows a part of the results.

In this test the target is Metabotropic glutamate receptor 8 (Rattus norvegicus) (UniProt P70579). Description: rat mGluR8 modulators via GIRK flux, primary screen, cell-based, thallium flux, HTS (AID 488969). To be noted: HEK293 rat mGluR8, GIRK (G protein-gated inwardly rectifying potassium channel) thallium flux, FluoZin2; at 10 µM; stronger effect = higher value.
UniProt P70579, sequence (P70579 whole entry, looked up): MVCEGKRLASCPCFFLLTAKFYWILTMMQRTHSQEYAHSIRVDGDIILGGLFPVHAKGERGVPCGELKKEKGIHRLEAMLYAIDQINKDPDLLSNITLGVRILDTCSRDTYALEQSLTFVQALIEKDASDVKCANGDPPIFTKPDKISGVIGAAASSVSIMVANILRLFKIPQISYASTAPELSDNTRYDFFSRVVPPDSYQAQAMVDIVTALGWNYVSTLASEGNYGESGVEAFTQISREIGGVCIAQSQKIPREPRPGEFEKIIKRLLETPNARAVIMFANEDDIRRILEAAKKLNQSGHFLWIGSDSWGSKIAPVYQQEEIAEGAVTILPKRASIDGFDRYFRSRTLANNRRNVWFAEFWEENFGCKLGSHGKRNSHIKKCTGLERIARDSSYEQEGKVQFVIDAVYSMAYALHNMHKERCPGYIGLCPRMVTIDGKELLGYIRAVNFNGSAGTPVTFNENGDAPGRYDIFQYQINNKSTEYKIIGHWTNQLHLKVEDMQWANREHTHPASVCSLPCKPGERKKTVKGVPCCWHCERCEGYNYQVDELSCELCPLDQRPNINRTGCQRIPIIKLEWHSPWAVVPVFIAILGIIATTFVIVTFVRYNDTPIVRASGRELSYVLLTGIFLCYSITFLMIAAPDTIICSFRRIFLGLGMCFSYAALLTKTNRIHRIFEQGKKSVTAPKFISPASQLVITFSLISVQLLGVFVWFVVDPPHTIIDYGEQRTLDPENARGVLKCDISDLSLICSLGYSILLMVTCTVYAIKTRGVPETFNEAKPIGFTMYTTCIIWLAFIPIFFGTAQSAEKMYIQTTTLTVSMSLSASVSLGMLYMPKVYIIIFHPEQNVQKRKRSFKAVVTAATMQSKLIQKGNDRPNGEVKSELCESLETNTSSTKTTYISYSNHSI
In the case of `CN1C(=O)C(=Cc2ccc(N3CCCCCC3)o2)C(=O)N(C)C1=S`, the z-score was -0.22.
For `CCOC(=O)c1ccc(N2C(=O)CC(N3CC=C(c4ccc(F)cc4)CC3)C2=O)cc1` (configuration not stated) the value was 1.81; for `CC12CN3CC(C)(CN(C1)C31CCOCC1)C2=O`, -1.07; for `Cc1ccc(-n2c(O)c(/C=C/C=Nc3ccccc3)c(=O)[nH]c2=O)cc1`, -0.158.
For `CCc1cc2c(N3CCN(C)CC3)ncnc2s1` the value was -0.448; for `CN(C)C(=O)Oc1cc(=O)n2c3c(cccc13)CCC2`, -0.28; for `CC(C)C12CN3CC(C(C)C)(CN(C1)C3c1cccnc1)C2=O` (configuration not stated), -0.0725.
The value for `COc1ccc2nc(/N=C/c3c(O)n(-c4cccc(Cl)c4)c(=O)[nH]c3=O)sc2c1` was 0.142.
Consider `Cc1ccc(N2C(=O)NC(=O)/C(=C/c3cnn(-c4ccc(C)cc4)c3)C2=O)cc1`, for which the z-score was -0.638.
For `Cn1cccc1/C=C1/C(=O)NC(=O)N(Cc2ccccc2)C1=O` the value was -0.709; for `Cc1nn(Cc2ccccc2)c(C)c1C(=O)NC1CCCc2ccccc21` (configuration not stated), -0.279.
The value for `CCOC(=O)CC1=C(C(=O)OCC)C2(C(=O)N1)C(C(=O)OC)=C(N)Oc1ccccc12` (configuration not stated) was 0.243; that for `CCN(CC)CCN=Cc1c(O)n(CCC2=CCCCC2)c(=O)[nH]c1=O` was 0.365.
In turn, `CN1C(=O)C(Cc2nc3ccccc3c(=O)n2-c2ccccc2)c2ccccc21` (configuration not stated) registered a z-score of 1.11.
For `Clc1ccc2c(c1)C(OC1CN3CCC1CC3)c1ccccc1CS2` (configuration not stated) the value was -0.815.
For `C=Cn1ccnc1P(=S)(c1ccc(N(C)C)cc1)c1nccn1C=C` the value was -0.283; for `Cc1ccccc1C(O)(Cc1ccccc1)C1CN2CCC1CC2` (configuration not stated), -0.323; for `CN1CCN(C(=S)SCC(=O)Nc2ccc(Cl)cc2C(=O)c2ccccc2)CC1`, -0.329.
The value for `Cc1ccc(-n2nc(C)c(C3C(C#N)=C(N)Oc4c3c(=O)oc3ccccc43)c2Cl)cc1` (configuration not stated) was -0.16; that for `O=c1[nH]c(=S)n(Cc2ccc(F)cc2)c(O)c1/C=N/N1CCCCC1` was -0.0895.
`O=C(COc1ccc2ccccc2c1)N1CCN(Cc2c[nH]c3ccccc23)CC1`: the z-score is -0.00703.
The value for `CCCCn1c(O)c(C(CC)=NCc2cccnc2)c(=O)[nH]c1=O` was -0.0749; that for `Cc1ccc2c(CN3CC=C(c4ccccc4)CC3)cc(=O)oc2c1C` was -0.207; that for `Cc1ccccc1CCNCc1ccc(Br)cc1` was 0.734.
Compound `O=C(Cn1cnc2ccccc2c1=O)NCC(=O)N1CCC2(CC1)OCCO2` returned a z-score of 0.722.
The value for `COc1cc(/C=C2\C(=O)NC(=O)N(c3ccccc3)C2=O)cc(OC)c1OC` was -0.207; that for `COc1ccc2[nH]c(C)c(CCN3CCC(=O)C(C)C3C)c2c1` (configuration not stated) was -0.132.
Consider `CC1C(c2cccs2)=[N+]([O-])C(C)(C(=O)c2ccc(F)cc2)N1O` (configuration not stated), for which the z-score was 0.251.
The value for `Cc1ccc(C2CC(=O)C(C=NCCN3CCN(C(=O)Cc4ccccc4)CC3)=C(O)C2)cc1` (configuration not stated) was -0.686; that for `O=c1c2ccccc2nc(-c2ccoc2)n1-c1ccccc1Cl` was 1.33; that for `Cc1cccnc1NC1=NCC(C)S1` (configuration not stated) was 0.376.
The value for `Cn1cc(C(=O)c2ccccc2)c2ccccc21` was -0.512.
In the case of `O=c1c2ccccc2nc(-c2ccccc2)n1-n1cccc1`, the z-score is 0.729.
The value for `CCN1CCN(c2nc3ccccc3s2)CC1` was -0.135; that for `COc1ccccc1OCC(=O)Nc1ccc(Cl)cc1C(=O)c1ccccc1` was -0.512.
As to `CCn1cc(C(=O)N2CCC3(CC2)OCCO3)c(=O)c2cc(S(=O)(=O)N3CCCC3)ccc21`, the z-score was -0.0808.
Consider `CCOc1cc(C=C2C(=O)NC(=O)NC2=O)ccc1OS(=O)(=O)c1ccccc1`, for which the z-score came to 0.715.
The value for `CCOP(=O)(OCC)C(NC(=O)c1ccccc1)C(Cl)(Cl)Cl` (configuration not stated) was -0.213.
Compound `CCN1CCN(c2ccc(NC(=O)C(C)C)cc2Cl)CC1` yielded a z-score of 0.168.
`CCCCc1nc2ccccc2c(=O)n1-c1ccc(O)cc1` had a z-score of 0.0576.
The value for `CCOC(=O)CN1C(=O)C2(C(C#N)=C(N)Oc3ccccc32)C(C(=O)OC)=C1C` (configuration not stated) was 0.00892.
For `CN1CCN(c2cccc3c2C(=O)c2ccccc2C3=O)CC1` the value was -0.771; for `O=c1[nH]c(=O)n(CCC2=CCCCC2)c(O)c1C=NCCCn1ccnc1`, 0.515.
`Cc1cccc(OP(=O)(Nc2cccnc2)Oc2cccc(C)c2)c1`: the z-score is -0.0316.
As for `Cc1cccc(N2CCc3c2nc2ccccc2c3N)c1`, the z-score is -0.172 and 1.53.
For `Cc1ccc(-c2nn(Cc3ccccc3)cc2C=O)cc1` the value was -0.296; for `Cc1[nH]n(-c2ccccc2)c(=O)c1C(c1ccc([N+](=O)[O-])cc1)c1c(C)[nH]n(-c2ccccc2)c1=O`, -0.644; for `Cc1[nH]c2ccccc2c1CCCNC1CCCCC1`, 0.385.
The value for `Nc1ccc2c(c1)Cc1ccccc1-2` was -0.395; that for `O=C1NC(=O)C(CCc2ccncc2)(Cc2cccc(Cl)c2Cl)C(=O)N1c1ccc(Br)cc1` (configuration not stated) was -1.33; that for `O=C(c1cc(-c2cccnc2)nc2ccccc12)N1CCC2(CC1)OCCO2` was -0.551.
With `O=c1[nH]c(CN2CC=C(c3ccccc3)CC2)nc2cc(C(F)(F)F)ccc12`, the z-score was 0.082.
On to `CC1=CC(=O)C2=C(C)CC(O)C3C(C)C(=O)OC3C12` (configuration not stated), for which the z-score is -0.859.
For `OCCN1C2CCC1CC(O)(c1ccc(F)cc1)C2` (configuration not stated) the value was -0.263; for `CC(=NCCN1CCCCC1)c1c(O)n(-c2ccc(Cl)cc2)c(=O)[nH]c1=O`, 0.081.
For the compound `CCC(=O)CC(c1ccccc1)c1c(O)c2ccccc2sc1=O` (configuration not stated), the z-score is -0.144.
For the compound `COc1ccc(C(O)c2cc(OC)ccc2OP(=O)(N(C)C)N(C)C)cc1` (configuration not stated), the z-score is -0.13.
For the compound `COc1cc(C(c2c(O)c3ccccc3oc2=O)c2c(C)n(C)n(-c3ccccc3)c2=O)ccc1O` (configuration not stated), the z-score is -0.181.
For `c1ccc(C2NCc3ccccc3-n3cccc32)cc1` (configuration not stated) the value was -0.239.
Turning to `O=C(COc1ccccc1)N1CCN(CC2CC3C=CC2C3)CC1` (configuration not stated), the z-score was determined as 0.446.
For `COCCCN1Cc2ccccc2C1=N` the value was -0.132.
For `Cc1nn(C2CCOC(C)(C)C2)c2c1C(c1ccc(OC(C)C)cc1)SCC(=O)N2` (configuration not stated) the value was -0.843; for `C#CCOCOCC#CCN(CC)CC`, 0.44.
Turning to `CN1CCC(n2nccc2N)CC1`, the z-score amounted to 1.1.
`Fc1ccc(C2NCCc3[nH]cnc32)cc1` (configuration not stated): the z-score is -1.62.
The value for `Cc1ccccc1N1C(=O)CC(=O)NC1=O` was 0.515; that for `CN(CC(=O)Nc1ccccc1-c1ccccc1)C1CCCCC1` was 0.245.
Consider `CCOC(=O)c1nc2ccccc2c(=O)n1-c1ccc(C)cc1C`, for which the z-score was -1.02.
For `Cc1ccc(Cn2nnnc2CN2CCC(n3nnc4cc(C(F)(F)F)ccc43)CC2)cc1` the value was -0.00751.
The value for `Cc1cccc(C)c1NC(=O)c1cccn(Cc2ccc3c(c2)OC(F)(F)O3)c1=O` was -0.292; that for `Cn1cc(C(=O)N2CCC3(CC2)OCCO3)c2c3ccccc3n(C)c2c1=O` was 0.775.
The value for `O=C(NCC(c1cccnc1)N1CCN(c2ccccc2F)CC1)Oc1ccccc1` (configuration not stated) was 0.181.
For the compound `CCOC(=O)[C@@]1(C#N)[C@@H]2C=CC(C(N)=O)=CN2[C@@H](C(N)=O)[C@@H]1c1cccc(Cl)c1`, the z-score was -0.0983.
The value for `O=C1/C(=C\c2ccc([N+](=O)[O-])cc2)N2CCC1CC2` was 0.0123.
For `c1cc2c(cc1CCNC1C3CC4CC(C3)CC1C4)OCO2` (configuration not stated) the value was 2.3; for `CN1CCN(Cc2nnc3n2-c2ccc(Cl)cc2C(c2ccccc2)=NC3)CC1`, -0.238; for `CCCCN1C(=O)/C(=C\c2ccco2)C(=O)N(CCc2ccccc2)C1=O`, -0.196.
For `CN1CCN(c2nc(N(C)C)oc(=O)c2C#N)CC1` the value was 0.0696; for `Cc1nn(Cc2ccccc2Cl)c(C)c1C(=O)OCC(=O)N1CC(C)OC(C)C1` (configuration not stated), -0.383.
On to `Cn1c(O)c(C=NCc2cccs2)c(=O)n(C)c1=O`, for which the z-score is 0.785.
For `CCCCCCn1c(O)c(C=NC2CCN(Cc3ccccc3)CC2)c(=O)[nH]c1=O` the value was 0.147; for `CC(ON1CC1(C(F)(F)F)C(F)(F)F)(C(N)=O)C(N)=O` (configuration not stated), -0.0566; for `CCCCN1C(=O)C(C2c3ccccc3C(=O)N2Cc2ccccc2)C(=O)NC1=S` (configuration not stated), -0.451.
On to `Cc1cc(C)[n+](C2C3CC4CC(C3)CC2C4)o1` (configuration not stated), for which the z-score is -0.636.
For `CCCCCCCSc1cc(OC)c(CCNC)cc1OC`, the z-score is 2.15.
The value for `C=CCn1c(O)c(C(C)=NCCc2ccccc2)c(=O)[nH]c1=O` was -0.42; that for `O=C1c2ccccc2C2(c3ccc(Cl)cc3)NCCN12` (configuration not stated) was -0.42.
With `CCCCN1C(=N)C(CC)(CC)C(=O)NC1=O`, the z-score was -0.0121.
For `CCN(CC)S(=O)(=O)c1ccc(NN=C(C#N)C#N)cc1` the value was 0.152; for `CCOC(=O)C1=C(N)OC2=C(C(=O)CCC2)C12C(=O)N(CC(N)=O)c1ccccc12` (configuration not stated), 0.437.
The value for `O=C(Cc1cccs1)N1CCC2(CC1)OCCO2` was -0.0671; that for `CC1CN=C(Nc2cccc3ccccc23)S1` (configuration not stated) was -0.203.
For `CCN1CCN(Cc2cc(Br)ccc2O)CC1` the value was 0.115; for `O=C(c1ccc2c(c1)ncn2C1CCCCC1)N1CCC2(CC1)OCCO2`, -0.048.
Turning to `O=C1NC(=O)N(Cc2ccco2)C(=O)/C1=C/c1ccc(-c2cccc([N+](=O)[O-])c2)o1`, the z-score is -0.581.
In the case of `O=[N+]([O-])c1ccc(Nc2ccccc2)cc1`, the z-score is -1.4.
Turning to `CC(=O)OC1C2CCC1C(N1CCCC1)CC2` (configuration not stated), the z-score was -0.278.
For the compound `O=C(Cc1ccccc1)OC(COCc1ccccc1)CN1CCOCC1` (configuration not stated), the z-score is -0.289.
`O=C(c1ccccc1F)c1cn(Cc2ccccc2)c2ccccc12`: the z-score was -0.253.
The value for `N=Cc1c(O)n(-c2cccc(Cl)c2)c(=O)[nH]c1=O` was 0.745; that for `Cc1ccc(-c2cc(C(F)F)n3ncc(C(=O)N4CCC5(CC4)OCCO5)c3n2)cc1` was -0.808; that for `Cc1cc(N)n(C2CCN(C)CC2)n1` was 0.0226.
The value for `Cc1ccc(Cl)cc1N1CCN(CCN)CC1` was -0.607; that for `O=Cc1cn(Cc2cccc([N+](=O)[O-])c2)c2ccccc12` was -0.285; that for `C=CCN1C(=O)NC(=O)C(Cc2ccc(OC)c(OC)c2)C1=O` (configuration not stated) was 0.487.
For `O=c1[nH]c2ccccc2c(=O)n1-c1cccc(Cl)c1` the value was -0.0839.
Take `CCC(=NCCc1c[nH]c2ccccc12)c1c(O)n(-c2ccc(C)cc2)c(=O)[nH]c1=O`: the z-score turned out to be 0.261.
With `CN(C)C(Cc1ccc(C#N)cc1)C(=O)c1ccccc1` (configuration not stated), the z-score is -0.0967.
Consider `CCC(C)NC(=O)c1c(N)n(Cc2ccc3c(c2)OCO3)c2nc3ccccc3nc12` (configuration not stated), for which the z-score is -0.217.
Turning to `Cc1ccc2c(c1)C1CN(C)CCC1N2C(=O)c1ccco1` (configuration not stated), the z-score is 0.116.
The value for `CC(C)OCCCNC(=O)c1c(N)n(CC2CCCO2)c2nc3ccccc3nc12` (configuration not stated) was -1.93.
For the compound `O=C(N/N=C/c1c(O)n(C2CC2)c(=S)[nH]c1=O)c1ccccc1O`, the z-score is -0.398.
